Assay results taken from PMC6919601, “Identification of Plasmodium dipeptidyl aminopeptidase allosteric inhibitors by high throughput screening” (PLoS ONE, 2019).
Out of some 110,000 compounds screened, about 230 (0.21%) showed an effect of 50% or more. The list shows a part of the results.

molecular target: DPAP1 (Plasmodium falciparum, UniProt Q8IIJ9); experiment: primary screen, percent inhibition; read by cleavage of a fluorogenic dipeptide substrate; higher = more effect of the substance; set-up: species or system P. falciparum D10 trophozoite lysates; single well
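Also: 30 min substrate incubation versus DMSO and 10 µM JCP410 controls.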

DPAP1, sequence (Q8IIJ9 whole entry, looked up): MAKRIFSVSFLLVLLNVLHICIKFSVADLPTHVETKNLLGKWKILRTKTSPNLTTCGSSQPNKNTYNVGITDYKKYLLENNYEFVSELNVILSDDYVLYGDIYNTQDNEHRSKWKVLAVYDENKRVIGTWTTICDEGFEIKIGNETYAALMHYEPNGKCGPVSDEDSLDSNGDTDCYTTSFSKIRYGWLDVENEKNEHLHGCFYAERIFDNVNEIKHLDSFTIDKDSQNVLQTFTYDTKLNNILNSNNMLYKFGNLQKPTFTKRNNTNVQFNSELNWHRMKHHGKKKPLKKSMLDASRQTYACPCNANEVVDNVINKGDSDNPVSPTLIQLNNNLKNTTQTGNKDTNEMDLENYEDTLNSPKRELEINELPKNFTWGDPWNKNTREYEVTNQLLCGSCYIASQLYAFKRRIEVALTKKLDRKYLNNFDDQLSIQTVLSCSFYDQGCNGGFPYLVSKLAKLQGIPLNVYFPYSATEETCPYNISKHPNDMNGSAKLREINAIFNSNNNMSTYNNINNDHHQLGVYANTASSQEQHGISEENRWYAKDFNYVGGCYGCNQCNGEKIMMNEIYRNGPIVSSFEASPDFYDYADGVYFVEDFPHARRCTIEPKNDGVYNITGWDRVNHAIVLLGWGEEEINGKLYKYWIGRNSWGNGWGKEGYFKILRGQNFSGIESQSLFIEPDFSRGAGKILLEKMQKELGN

SMILES	% Inhibition @ 10 uM
CCOc1ccc(C2=CC(=O)C(CC(=O)O)CC2)cc1 (stereo not drawn)	1.63%
C=CCO/C(O)=C1/C(C)=Nc2ncnn2C1c1ccc(Br)cc1 (stereo not drawn)	-1.62%
CCCC1=C(C(=O)OCC)C(c2c(F)cccc2Cl)NC(=O)N1C (stereo not drawn)	-1.6%
Cc1ccc(-c2nc(CS(=O)(=O)CC(=O)N3CCN(C)CC3)c(C)o2)cc1	-3.7%
CC1CCCC(NC(=O)CCN2C(=O)c3ccccc3Sc3ncccc32)C1C (stereo not drawn)	4.84%
C#CCCCOc1nc(Cl)c(C)n(Cc2ccccc2)c1=O	3.05%
CCOc1ccc(C/C(=N\CC(=O)O)C2=C(O)CC(C)(C)CC2=O)cc1OCC	-4.49%
Cc1cccc(OCC(=O)NC2CCCCC2NC(=O)COc2cccc(C)c2)c1 (stereo not drawn)	1.28%
CC/N=c1\c(NC(=O)c2ccccc2F)c(O)oc2ccccc12	2.5%
Cc1cc(C)c(C)c(OCCOCCN2CCN(C)CC2)c1	-0.473%
CCOC(=O)c1c2n(c3c(NCc4ccccc4)ncnc13)CCC2	3.01%
COCCN1C2=C(C(=O)CC(C)(C)C2)C(c2cccc(OC)c2)C2=C1CC(C)(C)CC2=O	0.147%
O=C(O)c1ccc2c(c1)C(=O)N(c1cc(C(=O)O)ccc1Cl)C2=O	3.65%
COc1ccc(-n2nnnc2SCC(=O)N2CCCCC2)cc1	-3.64%
OC12CC3CC(C1)CC(O)(C3)C2	-2.41%
CC(=O)c1cccc(NC(=O)Cn2nc(C(F)(F)F)cc2C2CC2)c1	4.03%
CCOc1ccc(C(=O)Nc2ccccc2Cl)cc1	-1.09%
COc1ccc(CC(=O)Nc2nc3nc(-c4ccccc4)cc(O)n3n2)cc1	0.401%
CC1(C)CC(=O)C(/C=N/CC2CCN(C(=O)c3ccccc3)CC2)=C(O)C1	3.04%
Cc1ccc(/C=N/N=C2\CC(c3ccccc3)N=N2)s1 (stereo not drawn)	-5%
CCOC(=O)N1CCN(c2c(NCCc3ccc(S(N)(=O)=O)cc3)c(=O)c2=O)CC1	-6.95%
C=CCOc1cccc(C2c3c(oc4ccc(F)cc4c3=O)C(=O)N2CCCN2CCOCC2)c1 (stereo not drawn)	-6.71%
O=C(CCC(=O)Nc1cccnc1)Nc1cccnc1	-5.06%
COc1cc2c(cc1/C=C1/SC(Nc3ccccc3C)=NC1=O)OCO2	-4.36%
OCCC1CCCCN1Cc1ccc(C(F)(F)F)cc1 (stereo not drawn)	-3.27%

SMILES	% Inhibition @ 10 uM
C=CCNC(=O)c1cc(Cl)ccc1NC(=O)c1ccc(Cl)cc1Cl	-2.1%
CCCCn1c(C(C)NC(=O)c2cccs2)nc2ccccc21 (stereo not drawn)	11.5%
COc1ccc(CC(=O)Nc2ccc(S(=O)(=O)N3CCC(C)CC3)cc2)cc1	3.91%
O=C(/C=C/n1c(=S)oc2ccccc21)c1ccccc1	-0.292%
Cc1ccc(C(O)(c2ccccc2)c2nc3ccccc3n2C)cc1 (stereo not drawn)	7.56%
Nc1ccc(-c2ccc(-c3ccc(N)cc3)c(N)c2)cc1	-2.74%
COc1ccc(C(CC(=O)O)NC(=O)c2ccco2)cc1OC (stereo not drawn)	3%
Cc1ccc(N2C(=O)CC(NC3CCCCCC3)C2=O)cc1 (stereo not drawn)	8.08%
Cc1cccc([N+]2=C3SCCCN3C(O)(c3cccs3)C2)c1C (stereo not drawn)	2.88%
CO/C(O)=C1/C(C)=NC2=C(C(=O)CC(c3ccccc3)C2)C1c1cccnc1 (stereo not drawn)	-0.0953%
Cc1nc2ccn(Cc3ccccc3)c(=O)c2cc1C(=O)N1CCCC1	-3.04%
CCOc1ccc(N(CC(=O)Nc2ccc(F)cc2)S(=O)(=O)c2ccc(C)cc2)cc1	6.69%
Nc1ccc(NC(=O)c2ccc(C(=O)Nc3ccc(N)cc3)cc2)cc1	-0.239%
Cc1cccc(NC(=O)c2sc3ccccc3c2Cl)n1	-2.46%
CCOC(=O)N1CCN(S(=O)(=O)N2CCC(C(=O)O)CC2)CC1	-3.78%
CC(C)N1CCN(C(=O)Cc2ccccc2)CC1	-11.5%
CCOC(=O)c1cc2c(=O)n3ccccc3nc2n(C)/c1=N\C(=O)c1ccccc1OCC	2.06%
CC1=C(C(=O)OC(C)C)C(c2ccc(C)s2)NC(=O)N1C (stereo not drawn)	10.5%
Cc1nn(C(C)C(=O)NC(C)CCc2ccccc2)c(=O)c2c1sc1ccccc12 (stereo not drawn)	-1.49%
CCC(C)NC(=O)CNC(=S)N(CCCN1CCOCC1)Cc1cccs1 (stereo not drawn)	-6.49%
COc1ccc(Cl)cc1NC(=O)COc1cccc(Cl)c1	3.65%
C=CCn1c(COc2ccccc2C)nnc1SCC(=O)NC12CC3CC(CC(C3)C1)C2	-4.04%
CN1C2CCC1CC(N(CCc1ccccc1)C(=O)c1ccc(Cl)cc1)C2 (stereo not drawn)	1.4%
COc1ccc(C)cc1N(CC(=O)NCc1ccncc1)S(=O)(=O)c1ccc(C)cc1	-4.05%
CC(C)CSc1nc2c(c(=O)n(C)c(=O)n2C)n1Cc1ccccc1	4%

SMILES	% Inhibition @ 10 uM
CCc1ccc(Oc2nc3ccccn3c(=O)c2/C=C(\C#N)C(=O)NCCCOC(C)C)cc1	-0.828%
CCOCCCNc1nc2c(S(=O)(=O)c3ccc(C)c(C)c3)nnn2c2ccsc12	-7.78%
O=C(O)c1ccc(N2C(=O)C3C4C=CC(C5CC45)C3C2=O)cc1 (stereo not drawn)	-1.59%
O=c1c2ccccc2n2c(-c3ccccc3O)nnc2n1CCc1ccccc1	-5.37%
OCC1CCCCN1Cc1ccc(Br)cc1 (stereo not drawn)	-4.15%
CN(Cc1ccccc1)S(=O)(=O)c1ccc(NC(=O)c2ccccc2C(=O)O)cc1	-7.84%
COc1cc2nc(NCCN3CCOCC3)n3nc(-c4ccccc4)nc3c2cc1OC	-2.64%
CCn1c2c(c3cc(OCC(C)C)ccc31)CCCC2=O	-5.15%
CC(C(=O)N1CCC(Cc2ccccc2)CC1)n1sc2ccccc2c1=O (stereo not drawn)	-2.29%
CC(C)c1cccc(C(C)C)c1C(O)c1ccccn1 (stereo not drawn)	-3.77%
O=C(Nc1ccc(CN2CCOCC2)cc1)c1cccc(Cl)c1	-2.85%
Cc1ccc(CN2CC34C=CC(O3)C(C(=O)NCc3ccco3)C4C2=O)cc1 (stereo not drawn)	1.83%
CCOC(=O)c1c(C)[nH]c(-c2ccc(OC)cc2)c1-c1ccc(OC)cc1	-2.5%
CC(=O)N/C(=C\c1cccs1)C(=O)O	-1.6%
COc1ccc(NC2=CC(=O)c3ccccc3C2=O)cc1	6.47%
O=C(NCc1ccco1)c1cc2n(n1)C(C(F)(F)F)CC(c1ccc(F)cc1)N2 (stereo not drawn)	2.44%
Cc1ccc(C(=O)NC(C)c2ccc3c(c2)OCO3)s1 (stereo not drawn)	-5.34%
O=C(c1ccccc1)c1ccc[nH]1	1.42%
O=C(NCCN1CCOCC1)c1ccc(Cl)c(Cl)c1	-0.687%
CC1CC(C)CN(C(=O)Cn2ncc3c4ccccc4n(Cc4ccccc4)c3c2=O)C1 (stereo not drawn)	1.8%
Cc1ccc(Cc2cnc(CN3CCOCC3)c(O)c2)cc1	-2.03%
CO/C(O)=C1\C(C)=NC2=C(C(=O)CC(c3cccs3)C2)C1c1ccc(F)c(F)c1 (stereo not drawn)	2.26%
COc1ccccc1OCC(=O)Nc1cccc(C(=O)Nc2nccs2)c1	-2.6%
Cc1ccc2n1CCN(C(=O)c1ccc(S(=O)(=O)N(C)C)cc1)C2C (stereo not drawn)	2.99%
O=C(c1ncc[nH]1)c1ccccc1C(=O)N1CCCC1	3.83%

SMILES	% Inhibition @ 10 uM
COc1ccc(Cl)cc1-n1nnc(-c2nsc(NC(=O)c3cccc(C)c3)n2)c1C	3.99%
CCC(=O)N1CCN(CCNC=C2C(=O)N(C)C(=O)N(C)C2=O)CC1	-6.35%
NC(=O)c1c(NC(=O)c2nc(SCc3ccc(F)cc3)ncc2Cl)sc2c1CCCC2	5.54%
C[C@@H]1O[C@@H](OCc2ccccc2)[C@@H]2OC(c3ccccc3)O[C@@H]2[C@H]1O (stereo partly drawn)	3.32%
Cc1ccc(CNC(=O)CSc2nncn3c2cc2oc(C)cc23)cc1	-5.93%
O=S(=O)(c1ccc(-c2ccccc2)cc1)N1CCCCC1	-5.91%
CC(C)Cc1cc(C(=O)NC(C)c2ccccc2)no1 (stereo not drawn)	-1.21%
O=C(O)c1ccc(Oc2ncnc3sc4c(c23)CCCC4)cc1	2.26%
COc1ccc(C(=O)Nc2ccc(OCc3ccccc3)cc2)c(OC)c1	6.1%
Cn1c(=O)c2c(nc(SCC(=O)O)n2Cc2ccccc2Cl)n(C)c1=O	6.12%
C=CCNC(=O)c1cc2c(=O)n3ccccc3nc2n(CCOC)c1=N	3.6%
CCc1nc2ccccc2c(NC(=O)CN(C)CCc2ccc(OC)c(OC)c2)c1C	-0.216%
CC1CC2c3cccc(C(=O)O)c3C(=O)N2Cc2ccccc21 (stereo not drawn)	1.52%
CC(C)(C)C(=O)n1nc(-c2ccccc2)oc1=O	-1.82%
CC(C)N(Cc1ccccc1)C(=O)c1ccc(Cl)cc1Cl	-0.833%
COc1ccc(NC(=O)Nc2ccc(Cl)c(Cl)c2)cc1OC	-17.2%
O=S(=O)(c1ccc(Oc2ccccc2)cc1)N1CCCC1	-3.44%
CCCNC(=O)CN(C)S(=O)(=O)c1c(C)cc(C)cc1C	2.36%
Cc1[nH]c2ccccc2c1/C=C1/SC(=O)N(CC(=O)N2CCCC2)C1=O	9.65%
Cc1ccc(N2C(=O)c3ccc(C(=O)O)cc3C2=O)c(C)c1	3.17%
CCOC(=O)C1=CN(Cc2ccc(OC)cc2)C=C(C(=O)OCC)C1c1cccc(F)c1	-5.05%
COc1ccc(N(CC(=O)Nc2ccccc2Cl)S(=O)(=O)c2ccccc2)cc1OC	-2.09%
CCSc1nc2n(n1)C(c1ccc(Br)cc1)C1=C(O)CCCC1=N2 (stereo not drawn)	1.62%
COc1ccc(C(=O)Nc2ccc(S(=O)(=O)Nc3cc(C)on3)cc2)cc1	4.11%
